Results from the supplement of paper PMC8728848.
The list shows a part of the results.

Key:
Assay in all cases: glycan array binding signal (z-score within array); higher = stronger binding
Details in all cases: glycan notation: IUPAC condensed, linker removed
[1] = target: Fuc(a1-2)[Gal(a1-3)]Gal(b1-4)GlcNAc(b1-2)Man
In short: (§1)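 The binding signal is a Z-score computed within each array and averaged over linkers. Arrays of the same protein sequence at different concentrations or buffers were also averaged together. Data originate from 3228 arrays in the Consortium for Functional Glycomics database, kept only where the protein sequence was available.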

[2] = target: Fuc(a1-2)[Gal(a1-3)]Gal(b1-4)GlcNAc(b1-2)Man(a1-3)[Fuc(a1-2)[Gal(a1-3)]Gal(b1-4)GlcNAc(b1-2)Man(a1-6)]Man(b1-4)GlcNAc(b1-4)GlcNAc
In short: as §1

[3] = target: Fuc(a1-2)[Gal(a1-3)]Gal(b1-4)GlcNAc(b1-2)Man(a1-3)[Fuc(a1-2)[Gal(a1-3)]Gal(b1-4)GlcNAc(b1-2)Man(a1-6)]Man(b1-4)GlcNAc(b1-4)[Fuc(a1-6)]GlcNAc
In short: as §1

[4] = target: Fuc(a1-2)[Gal(a1-3)]Gal(b1-4)GlcNAc(b1-3)GalNAc
In short: as §1

[5] = target: Fuc(a1-2)[Gal(a1-3)]Gal(b1-4)GlcNAc(b1-3)[Fuc(a1-2)[Gal(a1-3)]Gal(b1-4)GlcNAc(b1-6)]GalNAc
In short: as §1

[6] = target: Fuc(a1-2)[Gal(a1-3)]Gal(b1-4)GlcNAc(b1-6)GalNAc
In short: as §1

[7] = target: Fuc(a1-2)[Gal(a1-3)]Gal(b1-4)[Fuc(a1-3)]Glc
In short: as §1

[8] = target: Fuc(a1-2)[Gal(a1-3)]Gal(b1-4)[Fuc(a1-3)]GlcNAc
In short: as §1

[9] = target: Fuc(a1-2)[Gal(a1-3)]Gal(b1-4)[Fuc(a1-3)]GlcNAc(b1-3)GalNAc
In short: as §1

[10] = target: Fuc(a1-2)[Gal(a1-4)]Gal(b1-4)GlcNAc
In short: as §1

[11] = target: Fuc(a1-2)[GalNAc(a1-3)]Gal
In short: as §1

[12] = target: Fuc(a1-2)[GalNAc(a1-3)]Gal(b1-3)GalNAc(a1-3)[Fuc(a1-2)]Gal(b1-4)GlcNAc
In short: as §1

[13] = target: Fuc(a1-2)[GalNAc(a1-3)]Gal(b1-3)GalNAc(b1-3)Gal(a1-4)Gal(b1-4)Glc
In short: as §1

[14] = target: Fuc(a1-2)[GalNAc(a1-3)]Gal(b1-3)GlcNAc
In short: as §1

[15] = target: Fuc(a1-2)[GalNAc(a1-3)]Gal(b1-3)GlcNAc(b1-2)Man(a1-3)[Fuc(a1-2)[GalNAc(a1-3)]Gal(b1-3)GlcNAc(b1-2)Man(a1-6)]Man(b1-4)GlcNAc(b1-4)GlcNAc
In short: as §1

[16] = target: Fuc(a1-2)[GalNAc(a1-3)]Gal(b1-3)GlcNAc(b1-2)Man(a1-3)[Fuc(a1-2)[GalNAc(a1-3)]Gal(b1-3)GlcNAc(b1-2)Man(a1-6)]Man(b1-4)GlcNAc(b1-4)[Fuc(a1-6)]GlcNAc
In short: as §1

[17] = target: Fuc(a1-2)[GalNAc(a1-3)]Gal(b1-3)GlcNAc(b1-3)GalNAc
In short: as §1

[18] = target: Fuc(a1-2)[GalNAc(a1-3)]Gal(b1-3)GlcNAc(b1-6)GalNAc
In short: as §1

[19] = target: Fuc(a1-2)[GalNAc(a1-3)]Gal(b1-4)Glc
In short: as §1

[20] = target: Fuc(a1-2)[GalNAc(a1-3)]Gal(b1-4)GlcNAc
In short: as §1

[21] = target: Fuc(a1-2)[GalNAc(a1-3)]Gal(b1-4)GlcNAc(b1-2)Man
In short: as §1

[22] = target: Fuc(a1-2)[GalNAc(a1-3)]Gal(b1-4)GlcNAc(b1-2)Man(a1-3)[Fuc(a1-2)[GalNAc(a1-3)]Gal(b1-4)GlcNAc(b1-2)Man(a1-6)]Man(b1-4)GlcNAc(b1-4)GlcNAc
In short: as §1

[23] = target: Fuc(a1-2)[GalNAc(a1-3)]Gal(b1-4)GlcNAc(b1-2)Man(a1-3)[Fuc(a1-2)[GalNAc(a1-3)]Gal(b1-4)GlcNAc(b1-2)Man(a1-6)]Man(b1-4)GlcNAc(b1-4)[Fuc(a1-6)]GlcNAc
In short: as §1

[24] = target: Fuc(a1-2)[GalNAc(a1-3)]Gal(b1-4)GlcNAc(b1-3)Gal(b1-4)GlcNAc
In short: as §1

[25] = target: Fuc(a1-2)[GalNAc(a1-3)]Gal(b1-4)GlcNAc(b1-3)Gal(b1-4)GlcNAc(b1-3)Gal(b1-4)GlcNAc
In short: as §1

[26] = target: Fuc(a1-2)[GalNAc(a1-3)]Gal(b1-4)GlcNAc(b1-3)GalNAc
In short: as §1

[27] = target: Fuc(a1-2)[GalNAc(a1-3)]Gal(b1-4)GlcNAc(b1-3)[Fuc(a1-2)[GalNAc(a1-3)]Gal(b1-4)GlcNAc(b1-6)]GalNAc
In short: as §1

[28] = target: Fuc(a1-2)[GalNAc(a1-3)]Gal(b1-4)GlcNAc(b1-6)GalNAc
In short: as §1

[29] = target: Fuc(a1-2)[GalNAc(a1-3)]Gal(b1-4)[Fuc(a1-3)]GlcNAc
In short: as §1

[30] = target: Fuc(a1-2)[GalNAc(a1-3)]Gal(b1-4)[Fuc(a1-3)]GlcNAc(b1-3)GalNAc
In short: as §1

[31] = target: Fuc(a1-2)[GalNAc(a1-4)]Gal(b1-4)GlcNAc
In short: as §1

[32] = target: Fuc(a1-2)[GalNAc(b1-3)]Gal
In short: as §1

Fuc(a1-3)GlcNAc = target: Fuc(a1-3)GlcNAc
In short: as §1

[33] = target: Fuc(a1-3)[Gal(b1-4)]Glc6S
In short: as §1

[34] = target: Fuc(a1-3)[Gal(b1-4)]GlcNAc
In short: as §1

[35] = target: Fuc(a1-3)[Gal(b1-4)]GlcNAc(b1-2)Man
In short: as §1

[36] = target: Fuc(a1-3)[Gal(b1-4)]GlcNAc(b1-2)Man(a1-3)[Fuc(a1-3)[Gal(b1-4)]GlcNAc(b1-2)Man(a1-6)]Man(b1-4)GlcNAc(b1-4)GlcNAc
In short: as §1

[37] = target: Fuc(a1-3)[Gal(b1-4)]GlcNAc(b1-2)Man(a1-3)[Fuc(a1-3)[Gal(b1-4)]GlcNAc(b1-2)Man(a1-6)]Man(b1-4)GlcNAc(b1-4)[Fuc(a1-6)]GlcNAc
In short: as §1

[38] = target: Fuc(a1-3)[Gal(b1-4)]GlcNAc(b1-3)Gal(b1-3)[Fuc(a1-4)]GlcNAc
In short: as §1

[39] = target: Fuc(a1-3)[Gal(b1-4)]GlcNAc(b1-3)Gal(b1-4)[Fuc(a1-3)]GlcNAc
In short: as §1

[40] = target: Fuc(a1-3)[Gal(b1-4)]GlcNAc(b1-3)Gal(b1-4)[Fuc(a1-3)]GlcNAc(b1-3)Gal(b1-4)[Fuc(a1-3)]GlcNAc
In short: as §1

[41] = target: Fuc(a1-3)[Gal(b1-4)]GlcNAc(b1-3)GalNAc
In short: as §1

[42] = target: Fuc(a1-3)[Gal(b1-4)]GlcNAc(b1-4)Gal(b1-4)[Fuc(a1-3)]GlcNAc
In short: as §1

[43] = target: Fuc(a1-3)[Gal(b1-4)]GlcNAc(b1-4)Gal(b1-4)[Fuc(a1-3)]GlcNAc(b1-4)Gal(b1-4)[Fuc(a1-3)]GlcNAc
In short: as §1

[44] = target: Fuc(a1-3)[Gal(b1-4)]GlcNAc(b1-6)GalNAc
In short: as §1

B1: BDCA-2 (Homo sapiens), Q8WTT0 (protein)
chain: MVPEEEPQDREKGLWWFQLKVWSMAVVSILLLSVCFTVSSVVPHNFMYSKTVKRLSKLREYQQYHPSLTCVMEGKDIEDWSCCPTPWTSFQSSCYFISTGMQSWTKSQKNCSVMGADLVVINTREEQDFIIQNLKRNSSYFLGLSDPGGRRHWQWVDQTPYNENVTFWHSGEPNNLDERCAIINFRSSEEWGWNDIHCHVPQKSICKMKKIYI
What does the source list for B1?
glycan array binding signal (z-score) [1]: -0.092; glycan array binding signal (z-score) [2]: -0.115; glycan array binding signal (z-score) [3]: -0.081; glycan array binding signal (z-score) [4]: -0.098; glycan array binding signal (z-score) [5]: -0.099; glycan array binding signal (z-score) [6]: -0.159; glycan array binding signal (z-score) [7]: -0.18; glycan array binding signal (z-score) [8]: -0.077; glycan array binding signal (z-score) [9]: -0.149; glycan array binding signal (z-score) [10]: -0.24; glycan array binding signal (z-score) [11]: -0.181; glycan array binding signal (z-score) [12]: -0.188; glycan array binding signal (z-score) [13]: -0.167; glycan array binding signal (z-score) [14]: -0.204; glycan array binding signal (z-score) [15]: -0.171; glycan array binding signal (z-score) [16]: -0.143; glycan array binding signal (z-score) [17]: -0.161; glycan array binding signal (z-score) [18]: -0.188; glycan array binding signal (z-score) [19]: -0.2; glycan array binding signal (z-score) [20]: 0.036; glycan array binding signal (z-score) [21]: -0.188; glycan array binding signal (z-score) [22]: -0.126; glycan array binding signal (z-score) [23]: -0.133; glycan array binding signal (z-score) [24]: -0.194; glycan array binding signal (z-score) [25]: -0.152; glycan array binding signal (z-score) [26]: -0.14; glycan array binding signal (z-score) [27]: -0.119; glycan array binding signal (z-score) [28]: -0.178; glycan array binding signal (z-score) [29]: -0.026; glycan array binding signal (z-score) [30]: -0.03; glycan array binding signal (z-score) [31]: -0.264; glycan array binding signal (z-score) [32]: 0.244; glycan array binding signal (z-score) (Fuc(a1-3)GlcNAc): -0.147; glycan array binding signal (z-score) [33]: -0.135; glycan array binding signal (z-score) [34]: -0.224; glycan array binding signal (z-score) [35]: -0.166; glycan array binding signal (z-score) [36]: -0.166; glycan array binding signal (z-score) [37]: -0.15; glycan array binding signal (z-score) [38]: -0.175; glycan array binding signal (z-score) [39]: -0.154; glycan array binding signal (z-score) [40]: -0.18; glycan array binding signal (z-score) [41]: -0.12; glycan array binding signal (z-score) [42]: -0.171; glycan array binding signal (z-score) [43]: -0.021; glycan array binding signal (z-score) [44]: -0.148
